Source: PubChem BioAssay AID652104 (National Center for Advancing Translational Sciences (NCATS), 2013)
Screen size: about 410,000 compounds; about 7,200 (1.8%) were called active. This list was built around the results that the source calls inconclusive (neither active nor inactive); the mix of calls is not that of the screen. The call rests on the fitted dose curve; in most records, active means well fitted activation curve with a large enough effect; inconclusive means small, poorly fitted or top-dose-only effect, or another doubt; inactive means no such curve, though single readings can be large or run the other way. No potency is given beside an inconclusive call; the fits are too rough.

Assay: qHTS of TDP-43 Inhibitors; further: nearly all actives have a fitted effect of over 50% in size; on growth rescue (activation): % of control where 0% means no effect
Details: TDP-43 expressing yeast growth rescue, BacTiter-Glo, 24 h; growth rescue (activation): at 46.1 µM (top of the series) unless noted
Summary of the method: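 In this qHTS, compounds that restore growth of yeast expressing TDP-43 appear as activators. Cells (OD600=0.02, galactose medium, raffinose-pregrown) are incubated with compound 24 hr at 30 deg C and growth is quantified by BacTiter-Glo.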
Potency means the concentration at half of the fitted maximal effect; tags describe the fitted curve by direction and shape.

| Compound | Potency | growth rescue (activation) |
| --- | --- | --- |
| CO[C@@]1(NC(=O)Cc2cccs2)C(=O)N2C(C(=O)O)=C(COC(N)=O)CS[C@@H]21 | inconclusive [activator, partial curve, poor fit] |  |
| COc1ccc(/C=C/C(=O)OCCNC(=O)c2ccncc2)cc1OC | inactive |  |
| CCOc1ccccc1NC(=O)CN1C(=O)C2(SCC(=O)N2c2ccc(C)cc2)c2ccccc21 (stereo unspecified) | inactive |  |
| CC(C)N(C(=O)CSc1nc(COc2ccccc2)nc2ccccc12)C(C)C | inconclusive [activator, single point] |  |
| COc1cc(F)ccc1-c1csc(C(O)c2ccccc2)n1 (stereo unspecified) | active: 35.5 µM |  |
| O=C(c1ccccc1NS(=O)(=O)c1ccc(Br)s1)N1CCCC1 | inconclusive [activator, single point] |  |
| O=C(c1cc2cc(Br)ccc2o1)N1CCCCC1 | inconclusive [activator, partial curve] |  |
| COc1cc(-c2nnc(SCC(=O)N3c4ccccc4Sc4ccccc43)o2)cc(OC)c1OC | inactive |  |
| COc1ccc(Br)c(C(=O)OCC(=O)NC2CCCCCC2)c1 | active: 22.4 µM |  |
| C=CCc1c(C)nc(SC)nc1Nc1ccccc1 | inconclusive [activator, single point] |  |
| CSc1ccc(/C=C/C(=O)OCC(=O)N2CCCCCC2)cc1 | inconclusive [activator, single point] |  |
| CC(C)CCNc1ncnc2c1cnn2-c1cccc(Cl)c1 | inconclusive [activator, partial curve] |  |
| CC[C@]12c3[nH]c4cc(-c5ccco5)ccc4c3CCN1C(=O)[C@@H](CC(=O)NCc1cccc(C(F)(F)F)c1)C[C@@H]2C(=O)N1CCN(C(=O)C2CC2)CC1 | inactive |  |
| O=[N+]([O-])c1cccc(COc2cccc(CO)c2)c1 | inconclusive [activator, partial curve] |  |
| O=C(Cc1ccc([N+](=O)[O-])cc1)OCc1c(F)cccc1Cl | inconclusive [activator, single point] |  |
| CCCSc1nnc2n(-c3cccc(C)c3)c(=O)c3c4c(sc3n12)CCCC4 | inactive |  |
| CC[C@@]1(C(=O)OC)N[C@H](CN(C)C(=O)C2CCCCC2)[C@@H]2C(=O)N(C)C(=O)[C@@H]21 | inconclusive [activator, partial curve] |  |
| COc1ccc2c(c1)OC[C@H]1[C@H]2N2C(=O)c3cc(Cl)ccc3NC(=O)[C@@]2(C)[C@H]1c1ccccc1 | active: 4.47 µM |  |
| O=C1c2ccccc2C(=O)N1c1ccccc1S(=O)C(F)(F)F (stereo unspecified) | inconclusive [activator, single point] |  |
| Cc1ccc(C(=O)OCC(=O)Nc2ccccc2Cl)c(O)c1 | inconclusive [activator, single point] |  |
| NC(=O)c1cc(Br)cc2c3c([nH]c12)CCCC3 | inconclusive [activator, partial curve] |  |
| CCOC(=O)Cc1ccc(Nc2nc3cc(-c4ccccc4C)sc3c(=O)n2C)cc1 | inconclusive [activator, single point] |  |
| CCCCc1ccc(NC(=O)Nc2cnccn2)cc1 | inconclusive [activator, partial curve] |  |

| Compound | Potency | growth rescue (activation) |
| --- | --- | --- |
| COc1ccc(OC)c(Nc2c3c(nc4ccccc24)CCC3)c1 | inactive |  |
| N#Cc1cccc(NC(=O)c2cc(C3CCCCN3S(=O)(=O)c3cccc4cccnc34)on2)c1 (stereo unspecified) | inconclusive [activator, partial curve] |  |
| Cc1ccc(Oc2c(C=O)c3ccccc3n2C)cc1 | inconclusive [activator, single point] |  |
| C/C(=N\NC(N)=S)C1C2C3CC4C5CC(C42)C1C53 (stereo unspecified) | active: 14.1 µM |  |
| CCCCNC(=S)N1CCN(c2ccccc2Cl)CC1 | active: 12.6 µM |  |
| O=C(O)CCSCCC(=O)O | inactive |  |
| CCOC(=O)C1CCCN(C(=O)c2ccc(NC(=O)c3nsc4ccccc34)cc2)C1 (stereo unspecified) | inconclusive [activator, partial curve] |  |
| Cc1ccc(C(=O)CC2(O)C(=O)N(Cc3ccccc3)c3ccccc32)c(C)c1 (stereo unspecified) | inconclusive [activator, single point] |  |
| O=C(COC(=O)c1cc(F)cc(F)c1)NCCCc1ccccc1 | inconclusive [activator, single point] |  |
| CC1(C)Cc2ccccc2-c2nnc(SCC(=O)N3CCN(c4ccccc4)CC3)n21 | inconclusive [activator, single point] |  |
| O=C(c1ccccc1)c1ccccc1N1C(=O)C=CC1=O |  | inconclusive: -90.7% [activator] |
| Cc1nc(-c2ccccc2Cl)sc1C(=O)/C=C/N(C)C | active: 31.6 µM |  |
| O=[N+]([O-])c1cnc(Nc2ccc(Cl)cn2)c([N+](=O)[O-])c1 | inconclusive [activator, single point] |  |
| N#Cc1cccc(NC(=O)CCNS(=O)(=O)c2ccc3c(c2)CCN3C(=O)C2CC2)c1 | inactive |  |
| O=C1CC(c2ccco2)c2ccc3ccccc3c2N1 (stereo unspecified) | active: 12.6 µM |  |
| Cc1ccc(-n2nnnc2CNC(=O)c2ccccc2C)cc1C | inconclusive [activator, partial curve] |  |
| COc1cccc(N2CCN(Cc3cc(=O)oc4cc(C)ccc34)CC2)c1 | inactive |  |
| Cc1ccn(-c2ccc([N+](=O)[O-])cc2)n1 | inconclusive [activator, partial curve] |  |
| Cc1nc2c(c(C)nn2C(C)(C)C)c(C)c1CCC(=O)Nc1ccc(Br)cc1Br | inactive |  |
| CC1CCCN(c2ncnc3c2cnn3-c2ccccc2)C1 (stereo unspecified) | inconclusive [activator, single point] |  |
| CCCCCCCCCCCC(=O)N1CC(=O)NC(=O)C1 | inconclusive [activator, single point] |  |
| O=C1c2ccccc2C(=O)N1CCCOc1ccccc1 | inconclusive [activator, partial curve] |  |
| Cc1ccc(S(=O)(=O)c2nnn3c2nc(N2CCC(C(N)=O)CC2)c2cc(Cl)ccc23)cc1C | inactive |  |
